The values that follow come from US20040205843A1 (NORTH CAROLINA STATE UNIVERSITY, published 2004).

For the experiment, the target named is T1, TGMV AL1, wild type, full length, untagged (tomato golden mosaic virus (TGMV), UniProt P03567 1-352).
T1 construct: also called Rep; authentic AL1
T1 sequence: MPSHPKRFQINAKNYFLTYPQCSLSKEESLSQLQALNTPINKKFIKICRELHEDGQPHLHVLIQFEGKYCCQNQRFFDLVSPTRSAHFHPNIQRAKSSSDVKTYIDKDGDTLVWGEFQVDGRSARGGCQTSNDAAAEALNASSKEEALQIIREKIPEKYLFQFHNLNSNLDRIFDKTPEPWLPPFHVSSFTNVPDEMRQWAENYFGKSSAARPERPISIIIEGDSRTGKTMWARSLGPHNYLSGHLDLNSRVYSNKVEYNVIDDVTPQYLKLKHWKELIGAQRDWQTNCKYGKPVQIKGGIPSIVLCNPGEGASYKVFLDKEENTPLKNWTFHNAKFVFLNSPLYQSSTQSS
Briefly: GST co-purification on glutathione resin from insect cells, immunoblot.

B1: GST alone (other)
chain: not shown
In the case of B1, the binding result is given as “no binding”.
